In the supplement of paper PMC4967469:

What was measured:
Assay in all cases: Viability of human cancer cell lines after 72 h of drug (GDSC screen)
JNK Inhibitor VIII = compound: CCOc1nc(NC(=O)Cc2cc(OC)ccc2OC)cc(N)c1C#N [JNK Inhibitor VIII]; settings: top dose 10 µM; top dose inferred
Experimental: (§1)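 Human cancer cell lines in 384-well plates, medium with 10% serum, drug for 72 h over a 256-fold dose range (nine 2-fold or five 4-fold steps up to the top dose). Adherent lines were fixed and stained with the nucleic acid dye Syto60, suspension lines read with resazurin; signal relative to control wells, capped at 0 and 100%. One two-parameter sigmoid per drug and line, fitted in a mixed model over all curves with the slope shared within a line.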

NSC-207895 = compound: CN1CCN(c2ccc([N+](=O)[O-])c3no[n+]([O-])c23)CC1 [NSC-207895]; settings: top dose 20 µM; top dose inferred
Experimental: as §1

FTI-277 = compound: COC(=O)[C@H](CCSC)NC(=O)c1ccc(NC[C@@H](N)CS)cc1-c1ccccc1 [FTI-277]; settings: top dose 1.024 µM; top dose inferred
Experimental: as §1

YM155 = compound: COCC[n+]1c2c(n(Cc3cnccn3)c1C)C(=O)c1ccccc1C2=O [YM155]; settings: top dose 5.12 µM
Experimental: as §1

OSI-906 = compound: C[C@]1(O)C[C@@H](c2nc(-c3ccc4ccc(-c5ccccc5)nc4c3)c3c(N)nccn32)C1 [OSI-906]; settings: top dose 2.56 µM; top dose inferred
Experimental: as §1

SB-715992 = compound: Cc1ccc(C(=O)N(CCCN)[C@@H](c2nc3cc(Cl)ccc3c(=O)n2Cc2ccccc2)C(C)C)cc1 [SB-715992]; settings: top dose 0.128 µM; top dose inferred
Experimental: as §1

JQ1 = compound: Cc1sc2c(c1C)C(c1ccc(Cl)cc1)=N[C@@H](CC(=O)OC(C)(C)C)c1nnc(C)n1-2 [JQ1]
Experimental: as §1

Belinostat = compound: O=C(/C=C/c1cccc(S(=O)(=O)Nc2ccccc2)c1)NO [Belinostat]; settings: top dose 20 µM; top dose inferred
Experimental: as §1

AMG-706 = compound: CC1(C)CNc2cc(NC(=O)c3cccnc3NCc3ccncc3)ccc21 [AMG-706]; settings: top dose 2 µM; top dose inferred
Experimental: as §1

JNJ-26854165 = compound: c1ccc2c(CCNc3ccc(Nc4ccncc4)cc3)c[nH]c2c1 [JNJ-26854165]; settings: top dose 10 µM
Experimental: as §1

[1] = top dose 1 µM, screen: GDSC drug entry 1218, top dose inferred
[2] = top dose 2.56 µM, screen: GDSC drug entry 163

| Cell Line | AUC (JNK Inhibitor VIII) | IC50 (JNK Inhibitor VIII) [µM] | AUC (NSC-207895) | IC50 (NSC-207895) [µM] | AUC (FTI-277) | IC50 (FTI-277) [µM] | AUC (YM155) | IC50 (YM155) [µM] | AUC (OSI-906) | IC50 (OSI-906) [µM] | AUC (SB-715992) | IC50 (SB-715992) [µM] | AUC (JQ1; [1]) | IC50 (JQ1; [1]) [µM] | AUC (JQ1; [2]) | IC50 (JQ1; [2]) [µM] | AUC (Belinostat) | IC50 (Belinostat) [µM] | AUC (AMG-706) | IC50 (AMG-706) [µM] | AUC (JNJ-26854165) | IC50 (JNJ-26854165) [µM] |
| --- | --- | --- | --- | --- | --- | --- | --- | --- | --- | --- | --- | --- | --- | --- | --- | --- | --- | --- | --- | --- | --- | --- |
| LN-405 (glioma, adherent) | 0.972 | > 10 | 0.984 | > 20 | 0.983 | > 1.02 | 0.208 | 0.034 | 0.984 | > 2.56 | 0.918 | > 0.128 | 0.967 | > 1 | 0.856 | > 2.56 | 0.546 | 1.73 |  |  |  |  |
| A549 (lung adenocarcinoma, adherent) | 0.979 | > 10 |  |  |  |  |  |  |  |  |  |  |  |  |  |  |  |  | 0.976 | > 2 | 0.959 | > 10 |
| KNS-62 (lung squamous cell carcinoma, adherent) | 0.953 | > 10 |  |  |  |  |  |  |  |  |  |  | 0.967 | > 1 |  |  |  |  | 0.908 | > 2 | 0.871 | > 10 |
| Jurkat (T-cell leukaemia, suspension) | 0.988 | > 10 |  |  |  |  |  |  |  |  |  |  |  |  |  |  |  |  | 0.988 | > 2 | 0.977 | > 10 |
| MEL-HO (melanoma, adherent) | 0.986 | > 10 |  |  |  |  |  |  |  |  |  |  | 0.985 | > 1 |  |  |  |  | 0.979 | > 2 | 0.84 | 7.04 |
| RD (rhabdomyosarcoma, adherent) |  |  | 0.635 | 3.07 | 0.985 | > 1.02 | 0.048 | < 0.02 | 0.745 | 0.87 | 0.881 | > 0.128 | 0.975 | > 1 | 0.69 | 0.577 | 0.442 | 0.857 |  |  | 0.951 | > 10 |
| NCI-H196 (small cell lung carcinoma, adherent) |  |  | 0.988 | > 20 | 0.984 | > 1.02 | 0.375 | 0.143 | 0.988 | > 2.56 | 0.988 | > 0.128 | 0.987 | > 1 | 0.825 | 1.64 | 0.263 | 0.254 |  |  | 0.949 | > 10 |
| PL18 (pancreas, adherent) |  |  | 0.987 | > 20 | 0.966 | > 1.02 | 0.032 | < 0.02 | 0.957 | > 2.56 | 0.98 | > 0.128 | 0.986 | > 1 | 0.643 | 0.397 | 0.551 | 1.73 |  |  | 0.868 | 8.99 |
| HTC-C3 (thyroid, adherent) |  |  | 0.926 | > 20 | 0.951 | > 1.02 | 0.102 | < 0.02 | 0.964 | > 2.56 | 0.881 | > 0.128 | 0.976 | > 1 | 0.623 | 0.364 | 0.238 | 0.196 |  |  | 0.932 | > 10 |

Lines with a small IC50 respond at low doses; fits outside the tested doses are given as limits. The AUC spans the tested range (256-fold, ending at the top dose) of the same fit; it is 1 without any effect and falls as sensitivity rises. For some of these results: An inferred top dose is not printed in the source and was worked back from the curve model. For some of these results: An entry number marks a drug with two screens in the source, which often give different values.
